One molecule from patent EP4671274A1 can be followed below.

For part of its entries the source gives two or more results. This is not the full list of results. The source may hold further records. Values that stand side by side seem to repeat one measurement (runs, samples, wells or individuals).

As a reminder, the EC50 is the midpoint of the concentration-response curve.

In the experiment the target is recombinant His-tagged canine interleukin-13 (cIL-13) (canine) (UniProt Q9N0W9). Put plainly: ELISA, His-tagged cIL-13 on nickel-coated plate.
Sequence of UniProt Q9N0W9 (Q9N0W9 other isoform, or with tags, fused parts or gaps): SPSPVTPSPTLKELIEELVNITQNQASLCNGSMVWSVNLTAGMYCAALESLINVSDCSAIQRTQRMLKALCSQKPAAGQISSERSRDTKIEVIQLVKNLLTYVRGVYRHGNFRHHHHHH

B1: mouse monoclonal antibody 32A10-#20 (antibody, from another filing, V domains shown)
VH: EVQLQQSGPELVKPGASVKVSCKTSGYSFTDYPIYWVRQSHGESLEWIGYIDPYNGGTTYNQNFKDKATLTVDKSSSTAFMHLNSLTSEDSAVYFCATAVVATDVMENWGQGTSVTVSS
VL: DIVLTQSQKFMSTSVGDRVSITCKASQNVRNAVAWFQQKPGQSPKALIYLASNRYTGVPDHFTGSGSGTDFTLTISNVQSEDLADYFCLQHWNYPLTFGAGTKLELK
Consider B1, for which the EC50 is 0.218 µg/mL and 1.45 nM [columns of one line].
